Where “and” joins values, the source holds several entries; their conditions need not be identical. Equal entries are not always repeated. This is one part of the list. Further columns of the screen follow, without active or inactive calls.

Common to all, as to assay: Primary Screen for Target Class Profiling of Small Molecule Inhibitors of Methyltransferases
Assay [1] has as its target Glycine N-methyltransferase (Homo sapiens) (UniProt Q14749). The note with it: purified enzyme, MTase-Glo SAH luminescence; measured here: GNMT inhibition; at 40 µM; stronger effect = lower value. Put shortly:
(§1)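 Each enzyme was assayed with SAM and its substrate. SAH formation detected by MTase-Glo luminescence; single-point 40 uM screen[…].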

For assay [2], the target named is Guanidinoacetate N-methyltransferase (Homo sapiens) (UniProt Q14353). The note with it: purified enzyme, MTase-Glo SAH luminescence; measured here: GAMT inhibition; at 40 µM; stronger effect = lower value. Put shortly:
as §1

The target of assay [3] is Histamine N-methyltransferase (Homo sapiens) (UniProt P50135). Conditions: purified enzyme, MTase-Glo SAH luminescence; measured here: HNMT inhibition; at 40 µM; stronger effect = lower value. Put shortly: as §1
The target of assay [4] is Nicotinamide N-methyltransferase (Homo sapiens) (UniProt P40261). Conditions: purified enzyme, MTase-Glo SAH luminescence; measured here: NNMT inhibition; at 40 µM; stronger effect = lower value. Summed up:
as §1

The target in assay [5] is Phenylethanolamine N-methyltransferase (Homo sapiens) (UniProt P11086). The note with it: purified enzyme, MTase-Glo SAH luminescence; measured here: PNMT inhibition; at 40 µM; stronger effect = lower value. Summed up: as §1
% is scaled to controls: 0 for no effect and ±100 for the full control effect.

Take `Cc1ccc(NS(=O)(=O)c2cc3c(cc2Cl)n(C)c(=O)n3C)c(C)c1`: the activity change, negative = inhibition in assay [1] was 2.37%; in assay [2], 0%; in assay [3], -6.87%; in assay [4], -6.18%; in assay [5], -2.84%.
The corresponding values for `COc1ccc2cc3n(c2c1)CC(C)(C(=O)NC1CCCC1)N(CCc1ccc(Cl)cc1)C3=O` (stereo unspecified) are -4.58%, 0.174%, -4.67%, -9.51% and -8.66%.
The corresponding values for `CCCn1c(=O)c2cc(Cl)ccc2n2c(SCC(=O)Nc3cc(F)ccc3F)nnc12` are -7.94%, 3.22%, 6.34%, -3.07% and -0.101%.
Consider `CNC(=O)c1ccc(-c2cnc3cnc(C(=O)N(C)c4ccc(Cl)cc4)cn23)cc1`, for which the activity change, negative = inhibition in assay [2] is -35.8%; in assay [4] it was -42.5%; in assay [5], -46%.
With `CC1(C(=O)NCc2ccc(Cl)cc2)Cn2c(ccc2-c2ccco2)C(=O)N1CCc1ccco1` (stereo unspecified), the activity change, negative = inhibition was -15.2% in assay [1]; -0.333% in assay [2]; 4.31% in assay [3]; -9.88% in assay [4]; -2.3% in assay [5].
For the compound `CCNC(=O)c1cc2n(n1)CC(C)(C(=O)NCc1ccc(F)cc1)N(C)C2=O` (stereo unspecified), the activity change, negative = inhibition was 1.18% in assay [1]; -0.446% in assay [2]; -4.96% in assay [3]; 0.975% in assay [4]; -3.13% in assay [5].
The corresponding values for `COC(=O)c1ccc(CN2C[C@@H]3C(C)(C)COc4ccc(OC)cc4[C@]3(CO)C2)cc1` are -5.25%, -0.079%, -2.75%, -8.22% and -1.93%.
The corresponding values for `Cc1ccc(N2C(=O)c3cc(C(C)(C)C)nn3CC2(C)C(=O)NCc2ccccc2)cc1C` (stereo unspecified) are 3.94%, 0%, 2.43%, 1.84% and 0.896%.
The corresponding values for `COc1ccc(Cl)cc1NC(=O)Cn1nc2cc(C)nc(Nc3ccccc3)n2c1=O` are 1.13%, 7.9%, -2.86%, -5.2% and -2.18%.
`CC(C)C1c2cccn2CCN1C(=O)NCCc1ccccc1` (stereo unspecified): the activity change, negative = inhibition in assay [1] is 13.1%; in assay [2], 3.73%; in assay [3], -6.66%; in assay [4], 5.9%; in assay [5] it was 8.89%.
The corresponding values for `CC(C)C[C@H](NC(=O)C1OC1C(=O)O)C(=O)NCCCCN=C(N)N` (stereo partly specified) are -9.15%, 1.05%, -2.9%, -4.35% and 5.57%.
The corresponding values for `O=[S+]1([O-])N(c2ccccc2)C[C@@H](O)[C@]12CCN(Cc1ccc(C(F)(F)F)nc1)C2` are -4.44%, -1.76%, -0.871%, -10.3% and -22.5%.
The corresponding values for `CC(C)Oc1ccc(CN2C(=O)c3cc4occc4n3CC2(C)C(=O)NC2CCCCCC2)cc1` (stereo unspecified) are -0.785%, -29.4%, 2.5%, -4.18% and -4.48%.
With `O=C(c1ccc2c(=O)nc3c(-c4cccc(F)c4)n[nH]n3c2c1)N1CCN(c2ccc(F)cc2)CC1`, the activity change, negative = inhibition was -22.4% in assay [1]; 0% in assay [2]; -0.391% in assay [3]; -6.67% in assay [4]; -1.82% in assay [5].
Take `O=C(c1ccc(C(F)(F)F)cc1)N1CCCC(C(=O)N2CCC(N3Cc4cccn4C3=O)CC2)C1` (stereo unspecified): the activity change, negative = inhibition in assay [1] was -7.8%; in assay [2] it was -12.8%; in assay [3], -6.24%; in assay [4] it was -14.6%; in assay [5], -6.41%.
The corresponding values for `COc1cccc(CN2C(=O)c3cc4ccc(OC)cc4n3CC2(C)C(=O)NC2CCCCCC2)c1` (stereo unspecified) are 0.993%, 0%, 4.32%, -14.5% and -2.74%.
The corresponding values for `Cc1c(NC(=O)CCc2cc3n(n2)CCNC3)cccc1-c1nncn1C` are -0.96%, -0.085%, -1.26%, -2.28% and -25%.
As for `O=C(NC[C@H]1O[C@@H](Cc2nc(-c3ccc(OC(F)(F)F)cc3)no2)[C@H](O)[C@@H]1O)C1CC1`, the activity change, negative = inhibition in assay [1] is 0.21%; in assay [2], -0.388%; in assay [3], 1.24%; in assay [4] it was -1.58%; in assay [5] it was -6.9%.
Take `COc1ccc(NC(=O)N[C@H]2C[C@@H](c3nc(-c4ccncc4)no3)N(C)C2)cc1`: the activity change, negative = inhibition is -6.68% in assay [1]; -7.89% in assay [2]; -3.73% in assay [3]; -13.3% in assay [4]; -26.2% in assay [5].
The corresponding values for `CCCn1c(=O)c2ccccc2n2c(=O)n(CC(=O)NCc3ccc(Cl)cc3)nc12` are -6.64%, 2.3%, 2.67%, -13.6% and -2.64%.
The corresponding values for `CC(C)OCCCNc1nc2c(-c3ccccc3)nnn2c2ccccc12` are 4.95%, 3.27%, 5.33%, 7.58% and -2.26%.
Regarding `Cc1cc(C)cc(N2C(=O)c3cc4sccc4n3CC2(C)C(=O)NC2CCCCCC2)c1` (stereo unspecified), the activity change, negative = inhibition was 1.34% in assay [1]; 0% in assay [2]; 0.497% in assay [3]; 5.82% in assay [4]; -2.99% in assay [5].
As to `CNC(=O)N1CCn2cccc2C1C` (stereo unspecified), the activity change, negative = inhibition in assay [1] is -0.524%; in assay [2], 0.069%; in assay [3], 0.379%; in assay [4], -1.44%; in assay [5], 3%.
The corresponding values for `Cc1nc(N2CCC(C(=O)NCCC3=CCCCC3)CC2)cc(C(F)(F)F)n1` are -4.58%, -3.9%, -5.79%, -9.84% and -6.21%.
The corresponding values for `O=C(Cn1c(=O)oc2cc(S(=O)(=O)N3CCCC3)ccc21)NCCC1=CCCCC1` are 0.53%, 0%, 1.02%, -5.66% and -41.7%.
The corresponding values for `Cc1ccccc1C(=O)c1ccc(Nc2ccc(Br)cc2N)cc1Cl` are -6.64%, -25.8%, -2.71%, -35.3% and -16.3%.
`CC(=O)O[C@H]1C(=O)[C@@]2(C)C([C@H](OC(=O)c3ccccc3)[C@]3(O)C[C@H](OC(=O)[C@H](O)[C@@H](NC(=O)c4ccccc4)c4ccccc4)C(C)=C1C3(C)C)[C@]1(OC(C)=O)CO[C@@H]1C[C@@H]2O` (stereo partly specified): the activity change, negative = inhibition is -2.62% in assay [1]; 12.9% and 13.6% and -6.26% in assay [2]; -0.379% in assay [3]; -11.5% and -6.01% and -19.1% in assay [4]; -7.13% and -0.092% and -5.82% in assay [5].
On to `COc1cc(CC2(CCC(=O)N3CCC(Oc4cccc(F)c4)CC3)CCC(=O)N2)ccc1F` (stereo unspecified), for which the activity change, negative = inhibition in assay [1] is -1.24%; in assay [2], -1.07%; in assay [3], -0.457%; in assay [4] it was -1.84%; in assay [5], 2.58%.
For `CC(=O)N1CCC(N2CCOC[C@H]2c2ncc(C(C)(C)C)[nH]2)CC1`, the activity change, negative = inhibition in assay [1] is -3.88%; in assay [2], -3.26%; in assay [3] it was -0.866%; in assay [4], -12.3%; in assay [5], -4.92%.
On to `CCN1CCN(c2ccc(Nc3ccc(-c4ccc(C(N)=O)cc4)n4ncnc34)cc2)CC1`, for which the figures for the activity change, negative = inhibition in assay [2], in assay [4] and in assay [5] were 6.34%, -71.8% and -17.5%, respectively.
